Where a name gives a salt, the structure may show the parent alone. The list shows a part of the results. Many values rest on one well or one pass, so single values are uncertain.
Each molecule was assayed on CquiOR32-CquiOrco (assay: current response class (signed ordinal: positive = inward/excitatory, negative = outward/inhibitory) (ordinal score (-3..3)); higher = stronger inward (excitatory) current). Conditions: 1 mM; holding potential (mV): -80.
Procedure: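 Xenopus oocytes co-expressing Culex quinquefasciatus CquiOR32 with CquiOrco were challenged by two-electrode voltage clamp (holding -80 mV) with a panel of about 200 odorants at 1 mM source dose (2 s stimulus). The response was scored qualitatively: + to +++ for weak to strong inward currents, x to xxx for weak to strong outward (inhibitory, reverse) currents, +/- and x/- for very weak currents (S/N 2-5), and - for no response. Scale: negative = stronger reverse/inhibitory current.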

| SMILES | current response class |
| --- | --- |
| CC/C=C\C/C=C\C/C=C\CCCCCCCC(=O)OCC [ethyl linolenate] | active: -1 |
| CCC/C=C/C=O [(E)-2-hexenal] | inactive: 0 |
| C1CCNC1 [pyrrolidine] | inactive: 0 |
| CC1=CCC2CC1C2(C)C (stereo not drawn) [α-pinene] | active: -0.5 |
| CC(=O)C(C)O (stereo not given) [3-hydroxy-2-butanone] | inactive: 0 |
| CC(C)C(C)O (stereo not given) [3-methyl-2-butanol] | active: 1 |
| CC(=O)CCC=C(C)C [6-methyl-5-hepten-2-one] | inactive: 0 |
| CC#CCCO [3-pentyn-1-ol] | inactive: 0 |
| CCCCCCCCCCCCCCCCCCOC(C)=O [octadecyl acetate] | inactive: 0 |
| CCCCC=O [pentanal] | inactive: 0 |
| CC(=O)OC/C=C(/C)CCC=C(C)C [neryl acetate] | inactive: 0 |
| C=C/C(C)=C/CC=C(C)C [ocimene] | active: -0.5 |
| CCCCN [butylamine] | inactive: 0 |
| CCCCCC(=O)OCC [ethyl hexanoate] | inactive: 0 |
| CSC [dimethyl sulfide] | inactive: 0 |
| CCOC(=O)C(C)O (stereo not given) [ethyl lactate] | inactive: 0 |
| CCCCCCO [1-hexanol] | active: 2 |
| CCCC(=O)OC/C=C(\C)CCC=C(C)C [geranyl butyrate] | inactive: 0 |
| CCOC(=O)CC [ethyl propionate] | inactive: 0 |
| O=C1CCCCC1 [cyclohexanone] | active: 3 |

| SMILES | current response class |
| --- | --- |
| COc1ccccc1O [guaiacol] | active: 2 |
| CCC(C)C(=O)OCCC(C)C (stereo not given) [3-methylbutyl 2-methylbutanoate] | inactive: 0 |
| CC(C)=CCO [3-methyl-2-buten-1-ol] | inactive: 0 |
| CC/C=C\CCCCCCC=O [(Z)-8-undecenal] | inactive: 0 |
| CC(=O)OCCC(C)CCC=C(C)C (stereo not given) [citronellyl acetate] | inactive: 0 |
| CC1CCC(O)CC1 (stereo not given) [4-methylcyclohexanol] | active: 1 |
| CC(=O)OC/C=C(\C)CC/C=C(\C)CCC=C(C)C [(E,E)-farnesyl acetate] | inactive: 0 |
| CCCCCCCCC1CCC(=O)O1 (stereo not given) [γ-dodecalactone] | inactive: 0 |
| C=CC(C)(CCC=C(C)C)OC(C)=O (stereo not given) [linalyl acetate] | active: -1 |
| CCCCC(C)O (stereo not given) [2-hexanol] | inactive: 0 |
| CCCCCCCCCCOC(C)=O [decyl acetate] | inactive: 0 |
| CCCCCOC(C)=O [N-pentylacetate] | inactive: 0 |
| c1ccc(Oc2ccccc2)cc1 [phenylether] | active: 1 |
| Cc1cc(C)cc(O)c1 [3,5-dimethylphenol] | inactive: 0 |
| O=COCc1ccccc1 [benzyl formate] | inactive: 0 |
| CCCOC(C)=O [propyl acetate] | inactive: 0 |
| C=CC(O)CCCCC (stereo not given) [1-octen-3-ol] | inactive: 0 |
| CC(C)=CCC[C@@H](C)CC=O (racemic) [(±)-citronellal] | inactive: 0 |
| CC(=O)OC1CC(C)CCC1C(C)C (stereo not given) [menthyl acetate] | inactive: 0 |
| CCCCCCCCCCCCCCCCO [1-hexadecanol] | inactive: 0 |
